Results on 26 compounds are retold here after the antibiotic and cytotoxicity screens of Wong et al. (2023).

Some of the results follow.

In one assay the test system is HSkMC (human skeletal muscle cells). Nature of the assay: cytotoxicity call (relative viability < 0.9). Particulars: 10 µM.
For `CC1(C)CCC2(C)CCC3(C)C(=CCC4C5(C)CCC(OC(=O)c6ccccc6)C(C)(C)C5CCC43C)C2C1` (stereo not drawn) [beta-AMYRIN BENZOATE ], the cytotoxicity call is “inactive”.
`NCC1OC(OC2C(N)CC(N)C(OC3OC(CO)C(O)C(N)C3O)C2O)C(N)C(O)C1O.O=S(=O)(O)O` (configuration not stated): the cytotoxicity call is “inactive”.
The same measure, in the same setting: for `C[C@@H]1CN([C@@H](C)CO)C(=O)c2cc(NC(=O)Nc3ccccc3)ccc2O[C@@H](C)CCCCO[C@@H]1CN(C)CC1CCCCC1` the value was “active”; for `COc1c(O)cc2oc3cc(O)c(CC=C(C)C)c(O)c3c(=O)c2c1CC=C(C)C` [alpha-MANGOSTIN ], “active”; for `CCC(CCC(C)C1CCC2C3CC=C4CC(O)CCC4(C)C3CCC12C)C(C)C` (stereo not drawn) [beta-SITOSTEROL ], “inactive”.
On the same count and under the same terms, for `COc1cc2c(cc1OC)C1C(=O)c3c(O)cc4c(c3OC1CO2)C=CC(C)(C)O4` (stereo not drawn) [alpha-TOXICAROL (dl) ] the value was “inactive”; for `CN1CCc2c(n[nH]c2CNc2ncccn2)C1`, “inactive”; for `O=C(C[C@@H]1CC=CC[C@H](NC(=O)OCC2c3ccccc3-c3ccccc32)C(=O)OC[C@H](Cc2ccccc2)NC1=O)N[C@@H](CO)Cc1ccccc1`, “inactive”.
Regarding `CC(=O)OC1CCC2(C)C(CC(OC(C)=O)C3(C)C4=CC(=O)OC(c5ccoc5)C4(C)CCC23)C1(C)C` (stereo not drawn) [3alpha-ACETOXYDIHYDRODEOXYGEDUNIN ], the cytotoxicity call is “inactive”.
As for `C[C@H](CCC(=O)O)[C@H]1CC[C@H]2[C@@H]3CC=C4C[C@@H](O)CC[C@]4(C)[C@H]3CC[C@]12C` [3beta-HYDROXYCHOL-5-ENIC ACID ], the cytotoxicity call was “inactive”.
Same read-out and setting: for `COCC#Cc1cnc2c(c1)C(=O)N([C@@H](C)CO)C[C@@H](C)[C@H](CN(C)C(=O)Nc1ccccc1OC)O2` the value was “inactive”.
Still for that read-out and setting: for `C=C1C2CCC3(C)C(c4ccoc4)OC(=O)CC13OC1CC(O)C(C)(C)C(CC(=O)OC)C12C` (stereo not drawn) [3alpha-HYDROXY-3-DEOXYANGOLENSIC ACID METHYL ESTER ] the value was “inactive”.
On the same count and under the same terms, for `C[C@@H]1CN([C@H](C)CO)C(=O)Cc2cc(NS(=O)(=O)c3ccc(F)cc3)ccc2O[C@H]1CN(C)CC1CC1` the value was “inactive”; for `NC(C(=O)O)C(O)C(=O)O` (stereo not drawn) [d,l-threo-3-HYDROXYASPARTIC ACID ], “inactive”; for `Oc1ccc2ccccc2c1` [beta-NAPHTHOL ], “inactive”.
For `CC(C)CC(NC(=O)C(C)NC(=O)CNC(=O)C(NC=O)C(C)C)C(=O)NC(C)C(=O)NC(C(=O)NC(C(=O)NC(C(=O)NC(Cc1c[nH]c2ccccc12)C(=O)NC(CC(C)C)C(=O)NC(Cc1c[nH]c2ccccc12)C(=O)NC(CC(C)C)C(=O)NC(Cc1c[nH]c2ccccc12)C(=O)NC(CC(C)C)C(=O)NC(Cc1c[nH]c2ccccc12)C(=O)NCCO)C(C)C)C(C)C)C(C)C` (configuration not stated) [GRAMICIDIN (gramicidin A shown) ], the cytotoxicity call was “active”.
Same read-out and setting: for `COc1ccc([Si](C)(C)[C@@H]2[C@@H](CCn3cc([C@H](O)c4ccccc4)nn3)O[C@]3(C(=O)N(Cc4cccc(N5CCC5=O)c4)c4ccccc43)[C@H]2C)cc1` the value was “inactive”; for `C[C@@H]1CN([C@H](C)CO)C(=O)Cc2cc(NC(=O)CCCN(C)C)ccc2O[C@H]1CN(C)Cc1ccc(Oc2ccccc2)cc1`, “inactive”.
Consider `CC(=O)OC1CC2C(C)(C)C(O)CCC2(C)C2CCC3(C)C(=CC(=O)OC3c3ccoc3)C12C` (stereo not drawn) [3beta-HYDROXYDEOXODIHYDRODEOXYGEDUNIN ], for which the cytotoxicity call is “inactive”.
On the same count and under the same terms, for `O/N=C/c1c(Cl)cccc1Cl` the value was “inactive”; for `CC(=O)OC1CCC2(C)C(CC(OC(C)=O)C3(C)C2CCC2(C)C(c4ccoc4)OC(=O)C4OC423)C1(C)C` (stereo not drawn) [3beta-ACETOXYDEOXODIHYDROGEDUNIN ], “inactive”; for `C=C1CCC=C(C)CCC2C1CC2(C)C.O` (single isomer, unassigned; (-)) [(-)E-CARYOPHYLLENE hydrate ], “inactive”.
Take `NC(Cc1cc(I)c(Oc2ccc(O)c(I)c2)c(I)c1)C(=O)[O-].[Na+]` [LIOTHYRONINE (L- isomer) SODIUM ]: the cytotoxicity call was “inactive”.
Same read-out and setting: for `CC(=O)OC1CCC2(C)C(CCC3C4CC=C(C(C)=O)C4(C)CCC32)C1` (stereo not drawn) [3-beta-ACETOXYALLOPREG-16-EN-20-ONE ] the value was “inactive”.
Still for that read-out and setting: for `CC(C)Cn1c(=O)n(C)c(=O)c2[nH]cnc21` the value was “inactive”; for `COCC(=O)Nc1ccc2c(c1)OC[C@@H](C)N(Cc1ccccc1F)C[C@H](C)[C@@H](OC)CN(C)C2=O`, “inactive”.

The next assay relates to HepG2. Nature of the assay: cytotoxicity call (relative viability < 0.9). Particulars: 10 µM.
As to `CC1(C)CCC2(C)CCC3(C)C(=CCC4C5(C)CCC(OC(=O)c6ccccc6)C(C)(C)C5CCC43C)C2C1` (stereo not drawn) [beta-AMYRIN BENZOATE ], the cytotoxicity call is “inactive”.
Same read-out and setting: for `NCC1OC(OC2C(N)CC(N)C(OC3OC(CO)C(O)C(N)C3O)C2O)C(N)C(O)C1O.O=S(=O)(O)O` (configuration not stated) the value was “inactive”; for `C[C@@H]1CN([C@@H](C)CO)C(=O)c2cc(NC(=O)Nc3ccccc3)ccc2O[C@@H](C)CCCCO[C@@H]1CN(C)CC1CCCCC1`, “active”.
Still for that read-out and setting: for `COc1c(O)cc2oc3cc(O)c(CC=C(C)C)c(O)c3c(=O)c2c1CC=C(C)C` [alpha-MANGOSTIN ] the value was “active”; for `CCC(CCC(C)C1CCC2C3CC=C4CC(O)CCC4(C)C3CCC12C)C(C)C` (stereo not drawn) [beta-SITOSTEROL ], “inactive”.
On the same count and under the same terms, for `COc1cc2c(cc1OC)C1C(=O)c3c(O)cc4c(c3OC1CO2)C=CC(C)(C)O4` (stereo not drawn) [alpha-TOXICAROL (dl) ] the value was “active”; for `CN1CCc2c(n[nH]c2CNc2ncccn2)C1`, “inactive”.
As to `O=C(C[C@@H]1CC=CC[C@H](NC(=O)OCC2c3ccccc3-c3ccccc32)C(=O)OC[C@H](Cc2ccccc2)NC1=O)N[C@@H](CO)Cc1ccccc1`, the cytotoxicity call is “inactive”.
Regarding `CC(=O)OC1CCC2(C)C(CC(OC(C)=O)C3(C)C4=CC(=O)OC(c5ccoc5)C4(C)CCC23)C1(C)C` (stereo not drawn) [3alpha-ACETOXYDIHYDRODEOXYGEDUNIN ], the cytotoxicity call is “inactive”.
As to `C[C@H](CCC(=O)O)[C@H]1CC[C@H]2[C@@H]3CC=C4C[C@@H](O)CC[C@]4(C)[C@H]3CC[C@]12C` [3beta-HYDROXYCHOL-5-ENIC ACID ], the cytotoxicity call was “inactive”.
The same measure, in the same setting: for `COCC#Cc1cnc2c(c1)C(=O)N([C@@H](C)CO)C[C@@H](C)[C@H](CN(C)C(=O)Nc1ccccc1OC)O2` the value was “inactive”; for `C=C1C2CCC3(C)C(c4ccoc4)OC(=O)CC13OC1CC(O)C(C)(C)C(CC(=O)OC)C12C` (stereo not drawn) [3alpha-HYDROXY-3-DEOXYANGOLENSIC ACID METHYL ESTER ], “inactive”.
Consider `C[C@@H]1CN([C@H](C)CO)C(=O)Cc2cc(NS(=O)(=O)c3ccc(F)cc3)ccc2O[C@H]1CN(C)CC1CC1`, for which the cytotoxicity call was “inactive”.
Still for that read-out and setting: for `NC(C(=O)O)C(O)C(=O)O` (stereo not drawn) [d,l-threo-3-HYDROXYASPARTIC ACID ] the value was “inactive”; for `Oc1ccc2ccccc2c1` [beta-NAPHTHOL ], “active”.
The same measure, in the same setting: for `CC(C)CC(NC(=O)C(C)NC(=O)CNC(=O)C(NC=O)C(C)C)C(=O)NC(C)C(=O)NC(C(=O)NC(C(=O)NC(C(=O)NC(Cc1c[nH]c2ccccc12)C(=O)NC(CC(C)C)C(=O)NC(Cc1c[nH]c2ccccc12)C(=O)NC(CC(C)C)C(=O)NC(Cc1c[nH]c2ccccc12)C(=O)NC(CC(C)C)C(=O)NC(Cc1c[nH]c2ccccc12)C(=O)NCCO)C(C)C)C(C)C)C(C)C` (configuration not stated) [GRAMICIDIN (gramicidin A shown) ] the value was “active”; for `COc1ccc([Si](C)(C)[C@@H]2[C@@H](CCn3cc([C@H](O)c4ccccc4)nn3)O[C@]3(C(=O)N(Cc4cccc(N5CCC5=O)c4)c4ccccc43)[C@H]2C)cc1`, “inactive”; for `C[C@@H]1CN([C@H](C)CO)C(=O)Cc2cc(NC(=O)CCCN(C)C)ccc2O[C@H]1CN(C)Cc1ccc(Oc2ccccc2)cc1`, “active”.
Same read-out and setting: for `CC(=O)OC1CC2C(C)(C)C(O)CCC2(C)C2CCC3(C)C(=CC(=O)OC3c3ccoc3)C12C` (stereo not drawn) [3beta-HYDROXYDEOXODIHYDRODEOXYGEDUNIN ] the value was “inactive”; for `O/N=C/c1c(Cl)cccc1Cl`, “inactive”; for `CC(=O)OC1CCC2(C)C(CC(OC(C)=O)C3(C)C2CCC2(C)C(c4ccoc4)OC(=O)C4OC423)C1(C)C` (stereo not drawn) [3beta-ACETOXYDEOXODIHYDROGEDUNIN ], “inactive”.
Regarding `C=C1CCC=C(C)CCC2C1CC2(C)C.O` (single isomer, unassigned; (-)) [(-)E-CARYOPHYLLENE hydrate ], the cytotoxicity call is “inactive”.
Turning to `NC(Cc1cc(I)c(Oc2ccc(O)c(I)c2)c(I)c1)C(=O)[O-].[Na+]` [LIOTHYRONINE (L- isomer) SODIUM ], the cytotoxicity call was “active”.
On the same count and under the same terms, for `CC(=O)OC1CCC2(C)C(CCC3C4CC=C(C(C)=O)C4(C)CCC32)C1` (stereo not drawn) [3-beta-ACETOXYALLOPREG-16-EN-20-ONE ] the value was “inactive”; for `CC(C)Cn1c(=O)n(C)c(=O)c2[nH]cnc21`, “inactive”.
On the same count and under the same terms, for `COCC(=O)Nc1ccc2c(c1)OC[C@@H](C)N(Cc1ccccc1F)C[C@H](C)[C@@H](OC)CN(C)C2=O` the value was “inactive”.
